Measurements: PubChem BioAssay AID743279 (National Center for Advancing Translational Sciences (NCATS), 2014)
Out of some 360,000 compounds screened, about 17,000 (4.7%) were called active. Inconclusive means that the source gave no clear call. Such entries were picked first, then a sample of the others. Rule as the data show it: active = activity change below about -50%; inconclusive = mostly about -30% to -49%; inactive = weaker than that.

Assay: qHTS for Inhibitors of Inflammasome Signaling: IL-1-beta AlphaLISA Primary Screen
Details: THP-1 LPS/ATP IL-1B secretion, 16 h; at 57.5 µM, active compounds read low
In short: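 Secreted IL-1B measured by AlphaLISA bead assay after 16 h compound exposure of THP-1 cells; compounds (final up to 57.5 uM) added 1 h before LPS (250 ng/mL) and ATP (1.25 mM) stimulation; lower signal means less secretion.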
% is scaled to controls: 0 for no effect and ±100 for the full control effect.

Activity change, inactive:
Cc1ccc(-c2nn3c(C)nnc3s2)cc1NC(=O)c1ccc(-c2ccc(Cl)cc2Cl)o1 21.4%
C#CCOCCOCCOCCNc1nc(N2CCN(C(=O)Cn3cc(CCO)nn3)CC2)nc(N2CCN(C(=O)[C@H](CCCCN)n3cc(CCCC)nn3)CC2)n1 2.45%
O=C(Nc1cccc(S(=O)(=O)N2CCOCC2)c1)c1ccccn1 33.7%
Cc1ccn2c(-c3csc(Nc4ccc(C(=O)O)cc4)n3)c(C)nc2c1 30.5%
Cc1cccc(NS(=O)(=O)c2ccc(Oc3ccccc3)cc2)n1 59.4%
Cc1cc2c(o1)CC(C)(C)CC2=O 10.7%
Cn1c(N2CCC(C(N)=O)CC2)nc2c1c(=O)n(Cc1ccc(Cl)cc1)c(=O)n2C 17%
CC(CCc1ccccc1)NC(=O)C(=O)NCCc1ccccc1 (stereo unspecified) -1.71%
COC(=O)c1[nH]c2ccc(C)cc2c1NC(=O)CN1CCc2cc(OC)c(OC)cc2C1 -11.7%
COc1ccccc1CNC(=O)COC(=O)c1cccc(-n2cnnn2)c1 44.1%
c1cc[n+](CCCC[n+]2ccccc2)cc1 10.5%
COCCn1c(SCC(=O)Nc2ccc(OC)c(S(N)(=O)=O)c2)nc2ccccc21 59.6%
COc1cc(C(C#N)N2CCC(c3ccccc3)=N2)ccc1O (stereo unspecified) -12.4%
COc1cc(=O)oc(-c2ccccc2)c1C(C)=O -10.8%
COc1ccc(C(CNC(=O)c2cc3ccccc3o2)N2CCCC2)cc1 (stereo unspecified) -2.19%
O=c1c2cc(N3CCOCC3)ccc2[nH]c(=S)n1Cc1ccc(Cl)cc1 0%
COc1ccccc1NS(=O)(=O)c1c(C)[nH]c(C)c1C(=O)N1CCCC1 2.57%
CN(CC(=O)Nc1ccccc1Br)C(=O)c1cccn1C 11.1%
CCOC(=O)c1c(-c2ccc(OC)cc2)csc1NC(=O)CCN1CCOCC1 -9.93%
O=c1c2ccccc2oc2cc(NCCCn3ccnc3)ccc12 -19.4%
CC(C)CCn1cnc2c1c(=O)n(C)c(=O)n2C -0.481%
COc1ccccc1N(CC(=O)Nc1cccnc1)S(=O)(=O)c1ccccc1 -4.2%
CCCCn1c(N)c(N(CCOC)C(=O)c2oc3c(Cl)cccc3c2C)c(=O)[nH]c1=O -6.62%
COCc1nnc(NC(=O)c2ccc(S(=O)(=O)N(C)Cc3ccccc3)cc2)o1 75.3%
COc1ccc(C(=O)NC2CC(C)(C)Cc3c2cnn3-c2ccccc2C)c(OC)c1OC (stereo unspecified)
CCN(CC(=O)Nc1ccc(NC(C)=O)cc1)C(=O)c1ccc2ccccc2c1 -16.5%
COCCCN1C(=O)C2C(C(=O)Nc3cc(C)cc(C)c3)C3C=CC2(O3)C1C(=O)NC1CCCCC1 (stereo unspecified) -6.2%
CN(C)C(=S)N=c1ssc(=S)n1Cc1cccnc1 9.72%

Activity change, active:
Cc1cc(/N=C/C=C2\N(C)c3ccccc3C2(C)C)n(CCC#N)n1 -90.1%
CCc1ccc2c(CN3CCN(Cc4ccccc4)CC3)cc(=O)oc2c1 -61.2%
O=c1c2ccccc2sn1-c1ccc(F)cc1 -109%
COC(=O)N1C(=O)[C@](c2ccccc2)(C2CCCCC2)N1C(=O)OC -74.6%
NS(=O)(=O)c1ccc(N/N=C/c2cn(-c3ccccc3)nc2-c2cccs2)cc1 -60.7%
CC1CCN(c2ccc(NC(=O)c3ccc([N+](=O)[O-])o3)cc2)CC1 -109%
O=C(N/N=C/c1cc(Br)ccc1O)Nc1ccccc1 -96.9%
Oc1ccccc1CNc1ccc(Br)cn1 -114%
Cc1nc(Cl)sc1C(=O)Nc1ccc(C(F)(F)F)cc1 -64.6%
COc1ccc(N(C)S(=O)(=O)c2cccc(C(=O)NCc3ccc(C)cc3)c2)cc1 -59.2%
CCOC(=O)CCS(=O)(=O)c1nc(-c2ccccc2)cc(C(F)(F)F)n1 -98.8%
CCNc1nc(-c2sc(NC(=O)C(C)(C)C)nc2C)c(-n2cc(-c3ccccc3)nn2)s1 -76.5%
CC(=O)N1CCN(C(=O)CNc2cc(C(F)(F)F)ccc2OCC(F)(F)F)CC1 -57%
Cc1ccc(S(=O)(=O)c2cc3c(=O)n4ccccc4nc3n(CCCN3CCOCC3)c2=N)cc1C -72.3%
COCCCn1c(O)c(/C=C2\N=C(C#N)C(=Nc3ccc(C)cc3)O2)sc1=S -81.8%
CC1CCCN(CCCNC(=O)c2ccc3c(c2)N(Cc2ccc(F)cc2)C(=O)c2ccccc2S3=O)C1 (stereo unspecified) -58.5%
Cc1ccc(C(=O)N(C)c2ccc(OCC(=O)N3c4ccc(C)cc4C4CN(C)CCC43)cc2)cc1 (stereo unspecified) -59.5%
Cc1cc(C)c(C)c(OCCNCc2ccccc2)c1 -93.3%
C#CCOCCOCCOCCNc1nc(N2CCN(C(=O)CCCCCCCCCCNC(=O)[C@H](CCCCN)n3cc(CCCC(=O)O)nn3)CC2)nc(N2CCN(C(=O)CCCCCCCCCCNC(=O)[C@H](CCCN=C(N)N)n3cc(C[C@@H](C)CC)nn3)CC2)n1 -73.3%
O=Nc1c(O)n(Cc2ccc(Cl)c(Cl)c2)c2ccccc12 -58.9%
CN(Cc1ccc(C(C)(C)C)cc1)C(=O)C1CCN(C(=O)Nc2ccccc2)CC1 -60.5%
CCOc1cccc(C(=O)Nc2cccc(-c3nnc(-c4ccccc4)o3)c2)c1 -72.9%

Activity change, inconclusive:
CCOC(=O)C1=C(COC(=O)/C=C/c2ccc(OC)cc2OC)NC(=O)NC1C (stereo unspecified) -33.4%
NS(=O)(=O)c1ccc(NC(=O)COc2ccc(C(=O)c3ccc(F)cc3)cc2)cc1 -30.2%
COc1ccc(-c2ccc(C(=O)NCC3CC3)c3occc23)c(C)c1 -45.4%
Nc1nc(N)c(C=Nc2ccc(Br)cc2)c(Nc2ccc(Br)cc2)n1 -34.1%
COc1ccc(-c2nn(-c3ccccc3)cc2C(=O)N2CCN(S(=O)(=O)c3cccc(F)c3)CC2)cc1 -49.4%
COc1ccc(Nc2ccnc3ccccc23)cc1 -46.8%
COC(=O)Cn1c(=O)c(C(=O)CCl)c(N)n(Cc2ccccc2)c1=O -49.8%
O=C(NC1CCCC1)C(c1ccc(N2CCOCC2)cc1)N(C(=O)c1ccco1)c1ccccc1F (stereo unspecified) -30.9%
Cc1ccc2cc3cc(C(=O)NCCCN4CC(C)CC(C)C4)oc3nc2c1 (stereo unspecified) -30.1%
O=C(c1cc(-c2cccc(O)c2)on1)N1CCCCC1 -30.1%
CC(C)C(=O)Nc1ccc(-c2nc3ncccc3o2)cc1 -37.6%
COc1ccc(Cl)cc1C(=O)Nc1nnn(C)n1 -38.6%
O=C(Nc1ccccn1)c1ccc(S(=O)(=O)c2ccc(Cl)cc2)cc1 -41%
O=S(=O)(c1cccc(-c2csc(-c3cccnc3)n2)c1)N1CCOCC1 -40.5%
CC(NCC(=O)Nc1ccccc1C(=O)NC1CC1)c1ccc(Cl)cc1 (stereo unspecified) -35.5%
CSc1ccc(CCNC(=O)c2ccc(CS(=O)Cc3ccc(Cl)cc3)o2)cc1 (stereo unspecified) -49%
CN(C)c1ccc(C(CNS(=O)(=O)c2ccc([N+](=O)[O-])cc2)N2CCCC2)cc1 (stereo unspecified) -43.5%
N=c1c(C(=O)NCc2ccccc2)cc2c(=O)n3ccccc3nc2n1Cc1ccco1 -38.6%
COc1ccc(NC(=O)c2sc3nc(C)nc(N4CCN(c5ccccn5)CC4)c3c2C)c(OC)c1 -41.7%
CCN(c1ccccc1)S(=O)(=O)c1ccc(N2CCN(c3ccc(O)cc3)CC2)nc1 -40.6%
O=C(C=Cc1ccco1)c1ccco1 -45.5%
COc1ccc2o/c(=N\O)c(C(=O)Nc3ccc(C)cc3)cc2c1 -47.7%
Cc1cc(C)c2nc(NC(=O)c3ccc([N+](=O)[O-])o3)sc2c1 -35.3%
Cc1ccc(NC(=O)C(C)c2cccc(C(=O)c3ccccc3)c2)cc1O (stereo unspecified) -34.4%
CCOC(=O)c1nnc(-c2ccc(C)cc2)nc1Oc1ccccc1Cl -38%
COC(C[C@H]1O[C@@H]1C(=O)[C@H](C)OCc1ccccc1)OC -43.9%
COc1cccc(/C=N/Nc2ccc(Cl)nn2)c1OC -46.3%
O=C1C2CCCCN2C(=O)N1CCCCN1CCN(c2cccc(C(F)(F)F)c2)CC1 (stereo unspecified) -47.6%
CCOC(=O)c1ccc(N2Cc3ccccc3C2=NC(=O)c2cccc([N+](=O)[O-])c2)cc1 -39.2%
CN1C(=O)c2cccc3c(N)ccc(c23)C1=O -34.2%
Cn1cc(/C=C2\SC(=O)N(c3ccc(O)cc3)C2=O)c2ccccc21 -35.6%
O=C(CN1C2CCCC1CC(NC(=O)C1CCCCC1)C2)Nc1ccccc1C(F)(F)F (stereo unspecified) -38.3%
COc1ccccc1CC(=O)Nc1ccc(-c2nnc(-c3ccco3)o2)cc1 -37.3%
CCOC(=O)COc1cc2oc(=O)cc(C)c2cc1[N+](=O)[O-] -32.5%
CN(C(=O)c1ccc(NC(=O)Cc2cccc(NC(=O)C3CCN(C(=O)c4ccccc4)CC3)c2)cc1)C1CC1 -32.2%
O=C(NCc1ccco1)Nc1ccccc1Cl -32.9%
